The results in this text go back to the supplement of paper PMC9513381.

Test [1] concerns the target SARS-CoV-2 Wuhan-Hu-1 spike pseudovirus. Description: pseudovirus neutralization IC50; higher = weaker neutralization. As to the method:
(§1)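 Single-round luciferase reporter pseudovirus mixed with antibody dilutions and put on 293T-ACE2 cells for 48 h; signal relative to no-antibody wells, four-parameter fit.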

Test [2] shares this target. Put plainly: pseudovirus neutralization IC90; higher = weaker neutralization. As to the method: as §1
Test [3] addresses SARS-CoV-2 Delta (B.1.617.2) spike RBD. Put plainly: ELISA binding EC50; higher = weaker binding; ELISA of recombinant human antibody on coated antigen, from 10 µg/ml in fourfold dilutions; four-parameter fit. (ELISA stands for enzyme-linked immunosorbent assay.)
For test [4], the target named is SARS-CoV-2 Omicron BA.1 spike protein. Described as above.
In test [5] the target is SARS-CoV-2 Wuhan-Hu-1 spike receptor-binding domain. The description is as above.

Recombinant human monoclonal antibodies (heavy:light variable regions). ELISA EC50 on the named antigen, from 10 µg/ml down; IC50 / IC90 against spike pseudovirus on 293T-ACE2 cells, 48 h; lower = stronger. Calls: IC50 above 1,000 ng/ml = non-neutralizing; EC50 above 1,000 ng/ml = non-binder. The source prints 1000 for neutralization that was not reached; it is given as >1000 ng/ml. Only binders of the Wuhan-Hu-1 domain have neutralization values.

B1: B1004 (protein)
chain 1: QVQLQESGPGLLKPSETLSLTCTVSGGSVSSANFHWSWIRQPPGKGLEWIGNFFYSGSTNYNPSLKSRLTISVDTSKNQFSLKLTSVTAADTAVYYCARDTRYYDRSGYVRSDGMDVWGQGTTVTVSS
chain 2: DIQMTQSPSTLSASVGDRVTITCRASQTISNWLAWYQQKPGQAPRLLIYEASTLERGVPSRFSGSGSGTEFTLTITGLQPDDFATYYCQQFDGDSVTFGQGTKLEIK
Take B1: the “pseudovirus neutralization IC50” value in test [1] is 0.0419 µg/mL. In addition, in test [2], the “pseudovirus neutralization IC90” value was found to be 0.448 µg/mL. Further, the “ELISA binding EC50” value in test [3] came out at 0.00959 µg/mL; in test [4], 0.00679 µg/mL; in test [5], 0.00299 µg/mL.

B2: B1007 (protein)
chain 1: QVQLVQSGAEVRKPGASVTVSCKASGYTFTNYYIHWARQAPGQGLEWMGMMNPSGGNTNYAQKFQGRVTMTRDTSTSTVYMELSSLRSEDTAVYYCARDRLMGYYDLWNAYGGMDVWGQGTTVTVSS
chain 2: SYELTQPPSVSVAPGKTARITCGGNNIGIKSVHWYQQKSGQAPVLVMFSDRDRPSGIPVRFSGSNSGNTATLTISGVEAGDEADYYCQVWDNSSAWVFGGGTKLTVL
On to B2, for which, in test [1], the “pseudovirus neutralization IC50” value was determined as 0.913 µg/mL. The “pseudovirus neutralization IC90” value in test [2] was over 1 µg/mL. Moreover, the “ELISA binding EC50” value in test [3] is 0.0513 µg/mL; in test [4], 0.0873 µg/mL; in test [5] it was 0.0102 µg/mL.

B3: B1008 (protein)
chain 1: QVQLVQSGAEVKKPGAPVKISCKASGYILTNHYIHWVRQAPGQGLEWMGMINPSGGSAHYAQNFQGRVTMTRDTSTSTVSMELSSLKSEDTAVYYCARDRLMGYYELWNAYGGMDVWGQGTTVTVSS
chain 2: SYELTQPPSVSVAPGKTARISCGGNDIGSKRVHWYQQKPGLAPVLVIYYDGDRPSGIPERFSASNSGFTATLTISRVEAGDEADYYCQVWDNTSAWVFGGGSKLTVL
On to B3, for which, in test [1], the “pseudovirus neutralization IC50” value was 0.916 µg/mL. Moreover, the “pseudovirus neutralization IC90” value in test [2] was over 1 µg/mL. Moreover, the “ELISA binding EC50” value in test [3] was found to be 0.0387 µg/mL; in test [4], 0.0177 µg/mL; in test [5], 0.0056 µg/mL.

B4: B1015 (protein)
chain 1: QVQLVESGGGVVQPGRSLRLSCTVSGFTFRHYGMHWVRQAPGKGLEWVAVILYDGSDKQYADSVKGRFTIARDNSKNTLYLQMNSLRAEDTAVYYCVKRRGSYCGGDCYSGEFDYWGQGTLVTVSS
chain 2: DIQMTQSPSSLSASVGDRVTITCQASQDISTYLNWFQQKPGKAPNLLISDASNLETGVPSRFSGSGSGTDFTFTISSLQPEDVATYYCQQYHNLPTFAGGTKVELK
B4: the “pseudovirus neutralization IC50” value in test [1] was over 1 µg/mL. For the same molecule, the “pseudovirus neutralization IC90” value in test [2] is over 1 µg/mL. Also, the “ELISA binding EC50” value in test [3] stood at 0.00555 µg/mL; in test [4], 0.00189 µg/mL; in test [5], 0.00103 µg/mL.

B5: B1010 (protein)
chain 1: QVQLVQSGAEVKKPGASVKVSCKAAGYTFTSSDINWVRQATGQGLEWMGWMNPNTGNTDYAQKFQGRVTMTRDTSISTAYMELSSLRSEDTAVYYCASRSLITMVREGIKYHYYVMDVWGPGTTVTVSS
chain 2: DIVMTQSPLSLPVTPGEPASISCRSSQSLLHTNGYNYLDWYLQKPGQSPHLLIYLGSNRTSGVPDRFSGSGSGTDFTLKISRVEAQDVGVYYCMQALQTPPTFGPGTKVDIK
For B5, the “pseudovirus neutralization IC50” value in test [1] was found to be 0.0103 µg/mL. In test [2], the “pseudovirus neutralization IC90” value is 0.0738 µg/mL. In addition, the “ELISA binding EC50” value in test [3] was 0.0312 µg/mL; in test [4] it was 0.00249 µg/mL; in test [5], 0.00293 µg/mL.

B6: B2014 (protein)
chain 1: QVQLVQSGAELKRPGASVKVSCKASGYTFSDYHMNWVRQAPGQGLEWMGIINPSGGGASYPQKFQGRVTMTRDTSTSTVFMQLNSLTYEDTAVYYCARGTPPSRGWYGGFDNWGQGTLVTVSS
chain 2: QSVLTQPPSVSGAPGQRITISCTGSTSNIGAGYDVQWYQQLPGTAPKLLIFDNNNRPSGVPDRFSGSKSGTSASLAITGLQAEDEADYYCQSFDSTLSGSTFVFGPGTKVTVL
On to B6, for which the “pseudovirus neutralization IC50” value in test [1] came to 0.0102 µg/mL. The “pseudovirus neutralization IC90” value in test [2] was found to be 0.0557 µg/mL. Moreover, the “ELISA binding EC50” value in test [3] came out at 0.0117 µg/mL; in test [4] it was 0.041 µg/mL; in test [5] it was 0.00215 µg/mL.

B7: B1016 (protein)
chain 1: EVQLVESGGGLVQPGRSLRLSCAASGFTFDDYAMHWVRQAPGKGLEWVSGISWNSGTIGYVDSVKGRFIISRDNAKNSLYLQMYSLRTEDTALYYCVKDVYMGKINLYGHEDYGMDVWGQGTTVTVSS
chain 2: QSVLTQPPSVSGAPGQRVTISCTGSSSNIGASYDVHWYQQLPGTAPKLLIYGKGNRPSGVPDRFSGSKSGTSASLAITGIQAEDEADYYCQSFDSSLSGVVFGGGTKLTVL
Regarding B7, the “pseudovirus neutralization IC50” value in test [1] was found to be 0.00953 µg/mL. The “pseudovirus neutralization IC90” value in test [2] was found to be 0.424 µg/mL. Also, the “ELISA binding EC50” value in test [3] was found to be 0.507 µg/mL; in test [4] it was 0.0106 µg/mL; in test [5], 0.0028 µg/mL.

B8: B2097 (protein)
chain 1: EVQLVESGGGLVQPGGSLRLSCAASGFTFNMYWMTWVRQAPGKGLEWVANIEPDGSDKDYGESVKGRFTISRDNAKNSLYLQMNSLRAEDSAVYYCATEAMGVGPTSGGFDSWGQGTLVTVSS
chain 2: DIQLTQSPSSLSASVGDRVTITCRASEGISSYLNWYQQKSGKAPKLLMYAASSLQSGVPSRFSGSGSGTDFTLTISSLQPEDFATYYCQQSYTTPRTFGQGTKVEIK
As for B8, in test [1], the “pseudovirus neutralization IC50” value is over 1 µg/mL. For the same molecule, in test [2], the “pseudovirus neutralization IC90” value is over 1 µg/mL. Besides, the “ELISA binding EC50” value in test [3] came out at 0.00507 µg/mL; in test [4], 0.0119 µg/mL; in test [5], 0.00327 µg/mL.

B9: B1011 (protein)
chain 1: QVQLVQSGAEVKKPGASVKVSCKASGYTFISYYTHWVRQAPGQGLEWMGIINPSDGYTSYAQKFQGRVTMTRDTSASTVYMELSSLRSEDTAVYYCARDSSIAARVVAWGQGTLVTVSS
chain 2: DIQMTQSPSSLSASVGDRVTITCQASQDIYNYLNWYQQKPGKAPKLLIFDAINLETGVPSRFSGSGSGTDFTFTISSLQPEDIATYYCQQHDNLPYSFGQGTKLEIK
For the molecule B9, the “pseudovirus neutralization IC50” value in test [1] turned out to be 0.0081 µg/mL. For the same molecule, the “pseudovirus neutralization IC90” value in test [2] stood at 0.0492 µg/mL. For the same molecule, the “ELISA binding EC50” value in test [3] amounted to 0.0763 µg/mL; in test [4], 0.00058 µg/mL; in test [5], 0.00293 µg/mL.

B10: B1012 (protein)
chain 1: QVQLVQSGAEVKKPGASVKVSCKASGYTFISYYTHWVRQAPGQGLEWMGIINPSDGYTSYAQKFQGRVTMTRDTSASTVYMELSSLRSEDTAVYYCARDSSIAARVVAWGQGTLVTVSS
chain 2: DIQMTQSPSSLSASVGDRVTITCQASQDIGNYLNWYQQKPGKAPKLLIFDASNLEAGVPSRFSASGSGTDFTFAISSLQPEDIAAYYCQQHDDLPYSFGQGTTLEIK
As for B10, the “pseudovirus neutralization IC50” value in test [1] came out at 0.00552 µg/mL. Further, the “pseudovirus neutralization IC90” value in test [2] came out at 0.0529 µg/mL. Besides, the “ELISA binding EC50” value in test [3] was 0.207 µg/mL; in test [4], 0.00476 µg/mL; in test [5], 0.00399 µg/mL.

B11: B1005 (protein)
chain 1: QVQLVQSGAEVKKPGASVKVSCKASGDTFSNYAISWVRQAPGQGLEWMGNIIPMFDIATYAQKFQGRVTISADKSTSTAYMELSSLSSEDTAVYFCASLGNGITLVRGVPITDHHFDYWGQGTLVTVSS
chain 2: QSVLTQPASVSGSPGQSITISCTGTSSDIGTYNLVSWYQQHPGKAPKLMIYEVSKRPSGVSNRFSGSKSGNTASLTISGLQAEDEADYYCCSYAASTTHWVFGGGTKLAV
Turning to B11, the “pseudovirus neutralization IC50” value in test [1] amounted to 0.0115 µg/mL. The “pseudovirus neutralization IC90” value in test [2] was 0.0626 µg/mL. Besides, the “ELISA binding EC50” value is 0.353 µg/mL in test [3], over 1 µg/mL in test [4] and 0.00433 µg/mL in test [5].

B12: B1006 (protein)
chain 1: QVQLVQSGTEVKKPGASVKVSCMASGNSFSNYAISWVRQAPGQGLEWMGNIIPMFDIATYAQKFQGRVTISADKSTSKVFMDLNSLSSEDTGVYFCASLGNGITLVRGAPITDHHFDYWGQGALVTVSS
chain 2: QSVLTQPASVSGSPGQSITISCTGTSSDIGSYNLVSWYQQHPGKAPKLMIYEVSKRPSGMSNRFSGSKSGNTASLTISGLQAEDEADYYCCSYAAGTTHWVFGGGTTLAV
In the case of B12, the “pseudovirus neutralization IC50” value in test [1] came out at 0.00457 µg/mL. In addition, the “pseudovirus neutralization IC90” value in test [2] was 0.0285 µg/mL. The “ELISA binding EC50” value in test [3] is over 1 µg/mL; in test [4], 0.804 µg/mL; in test [5], 0.0061 µg/mL.

B13: B1013 (protein)
chain 1: EVQLVESGGGLVQPGRSLRLSCAASGFTFDDYAIHWVRQPPGKGLEWVSGTSWNSGTIGYADSVKGRFIISRDNAKNSLYLQMNSLRAEDTALYYCAKDIRRSGYCSGGICYTEYYAMDVWGQGTTVTVSS
chain 2: QSALTQPASVSGSPGQSITISCTGTSSDVGGYNYVSWYQQLPGKAPKLMIYDVSTRPSGVSNRFSGSKSGNTASLTVSGLQAEDEANYYCTSYTSDSIVVFGGGTKLTVL
For the molecule B13, the “pseudovirus neutralization IC50” value in test [1] was 0.0216 µg/mL. The “pseudovirus neutralization IC90” value in test [2] turned out to be 0.285 µg/mL. For the same molecule, the figures for the “ELISA binding EC50” value in test [3], in test [4] and in test [5] were 0.0428 µg/mL, 0.0309 µg/mL and 0.00464 µg/mL, respectively.

B14: B1014 (protein)
chain 1: EVQLVESGGGLVQPGRSLRLSCAASGFTFDDYAIHWVRQPPGKGLEWVSGVSWNSGTIGYADSVKGRFIITRDNAKNSLYLQMNSLRAEDTALYYCAKDIRRSGYCSGGLCNTEYYAMDVWGQGTTVTVSS
chain 2: QSALTQPASVSGSPGQSITVSCTGTTSDVGGYNYVSWYQQHPGKAPELMIYDVNKRPSGISNRFSGSKSGNTASLTISGLQAEDEADYYCTSYASSSIVVFGGGTKLTVL
Consider B14, for which the “pseudovirus neutralization IC50” value in test [1] worked out at 0.0298 µg/mL. The “pseudovirus neutralization IC90” value in test [2] is 0.493 µg/mL. Further, the “ELISA binding EC50” value turned out to be 0.0497 µg/mL in test [3], 0.0351 µg/mL in test [4] and 0.00296 µg/mL in test [5].
